# According to US20250115594A1, “ANTIBACTERIAL AGENTS: SOLUBLE SALTS AND AQUEOUS FORMULATIONS OF PYRONINS” (priority 2018, published 2025):
# Where two headings read alike, the source gives them in different places.
# Assays:
# [1] = test system: methicillin-resistant Staphylococcus aureus (MRSA) strain BAA-1707; test: Mouse model of Staphylococcus aureus systemic infection (peritonitis model); conditions: single dose, 5% dextrose, 10 mM sodium phosphate, pH 7.4, 50% survival at 72 h, read-out: in vivo antibacterial activity: mouse MRSA peritonitis ED50
# Experimental: Female Swiss Webster mice ([…]) were experimentally infected by intraperitoneal administration of 1×10^7 colony forming units of methicillin-resistant Staphylococcus aureus (MRSA) strain BAA-1707 (USA-400, MW2) in 5% hog gastric mucin. Test compounds in vehicle (5% dextrose in 10 mM sodium phosphate, pH 7.4), positive control in vehicle (linezolid at 12.5 mg/kg), and negative control (vehicle only), were administered by intravenous injection into a tail vein (200 μl) 0 h post-infection to provide single intravenous doses of 1.56, 3.125, 6.25, 12.5, 25, and 50 mg/kg or by oral gavage (400 μl) 1 h pre-infection to provide single oral doses of 3.125, 6.25, 12.5, 25, 50, and 100 mg/kg. Survival was monitored for 72 h post-infection. Identities of test salts and controls were blinded from personnel performing injections and monitoring survival. The effective dose 50 (ED50) was defined as the test-compound dose resulting in 50% survival at 72 h (calculated using the probit method).
# [2] = test system: methicillin-resistant Staphylococcus aureus (MRSA) strain BAA-1707; test: Mouse model of Staphylococcus aureus lung infection (neutropenic pneumonia model); format: in vivo; conditions: 5% dextrose, 10 mM sodium phosphate, minimum dose giving ≥2 log reduction in bacterial burden
# Experimental: Female Swiss Webster mice (0.18-0.20 kg) were rendered immunosuppressed by oral gavage for 4 days with cyclophosphamide and were infected by intranasal administration of 1×10^8 colony forming units of methicillin-resistant Staphylococcus aureus (MRSA) strain BAA-1707 (USA-400, MW2). Test compounds in vehicle (5% dextrose in 10 mM sodium phosphate, pH 8.25), positive control in vehicle (vancomycin at 100 mg/kg), and negative control (vehicle only), were administered by intravenous injection into a tail vein (200 μl) 1 h post-infection to provide single intravenous doses of 25, 50, amd 100 mg/kg or by oral gavage (200 μl) 1 h post-infection to provide oral doses of 100, 200, and 400 mg/kg. Mice were euthanized and lungs were harvested and homogenized 24 h post-infection; and viable bacteria were quantified. The effective dose (ED(2 log)) was defined as the minimum test-compound dose resulting in ≥2 log reduction in bacterial burden.
smiles,measurement,setting,value
[2H]C([2H])([2H])OC(=O)N/C=C/CCCc1cc([O-])c(C(=O)/C(C)=C/c2cnc(Oc3ccc(F)cc3)s2)c(=O)o1.[Na+] [Example 9],ED50,[1]; intravenous,10 mg/kg
same,ED50,[1]; oral,10 mg/kg
same,in vivo antibacterial activity: mouse MRSA pneumonia ED(2 log),"[2]; intravenous, single dose, pH 8.25",25 mg/kg
same,in vivo antibacterial activity: mouse MRSA pneumonia ED(2 log),"[2]; oral, pH 7.4",100 mg/kg
